Source: the supplement of paper PMC3334620
Whole data set: some 33,000 sequences, median “E-score (-0.5 to 0.5)” near -0.054, cut for the highest 2% near 0.39. The list shows a part of the results.

molecular target: Ylr278c (UniProt Q05854); assay: PBM E-score (8-mer binding enrichment) (E-score (-0.5 to 0.5)); higher = stronger / more preferred TF binding; most listed sequences are background and not binding sites; details: protein concentration: 200 nM; construct: GST-DNA-binding domain
In short: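 Universal all-10-mer Agilent arrays, fresh or stripped once, were converted to double-stranded form by primer extension. GST-tagged yeast transcription factors from PURExpress in vitro transcription/translation, full-length or DNA-binding domain only, were applied at about 100-200 nM and detected with fluorescent anti-GST. After masliner normalisation, the Universal PBM Analysis Suite scored each ungapped eight-base word together with its reverse complement by E-score.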

| Sequence | PBM E-score |
| --- | --- |
| GACTCAGA | -0.161 |
| AATTTGAC | 0.051 |
| TTGAGCAA | -0.179 |
| GCAGAGAC | -0.26 |
| GAGTACGC | -0.131 |
| CCTCCTGC | -0.182 |
| CGCATTAA | 0.0928 |
| AACCTTGG | -0.0903 |
| CTGGACAA | -0.278 |
| CAACCCAG | -0.119 |
| ACCACCGA | 0.11 |
| CGACAAAA | 0.109 |
| AGTGCGAT | 0.117 |
| TCTGCCCA | -0.151 |
| GGTTTTGA | 0.0531 |
| GGTTCAGA | -0.266 |
| AGAGGACC | -0.227 |
| CTTTTGGA | -0.0201 |
| CCGATACC | 0.249 |
| TCCAGAGA | -0.212 |
| TCAATAAA | -0.146 |
| CCCTCACA | -0.277 |
| ACCATCTC | -0.00358 |
| CCATATGA | -0.23 |
| ATAGAGGC | -0.243 |

| Sequence | PBM E-score |
| --- | --- |
| ATTCAGGA | 0.039 |
| CTTCACGA | -0.226 |
| AGTATCGC | -0.102 |
| AAAGAACT | -0.108 |
| GCATGGTA | 0.0176 |
| CTTTTCGA | -0.136 |
| GTATCGAA | -0.103 |
| TATTCGCA | -0.112 |
| CGAACAAA | 0.181 |
| GACCTCAA | -0.226 |
| CAGCGAAG | -0.2 |
| CCCACCGC | 0.225 |
| ATCTCCTG | 0.0929 |
| ATTGTTCG | 0.154 |
| GCACGCCA | -0.116 |
| CAACCGAG | -0.0652 |
| GCTCGAAA | 0.0908 |
| GCGGCGCC | 0.289 |
| TCTCTAAA | 0.00577 |
| AGGTAGGA | -0.132 |
| GACCTAAA | 0.0762 |
| GAAAGCAA | 0.145 |
| ACACGATA | 0.136 |
| TGGTCCAA | 0.0431 |
| CTAGGGAG | -0.191 |

| Sequence | PBM E-score |
| --- | --- |
| ACCTTAGC | 0.0208 |
| CCGTAAGA | 0.0926 |
| CTAGAACA | 0.17 |
| AACCCCGA | 0.431 |
| TGAGCGAA | 0.0115 |
| GGGCCCCC | -0.0037 |
| AGCGTACG | -0.0674 |
| AGGGTCAT | -0.242 |
| AACGTCGT | -0.0374 |
| GTGTAGTA | 0.0761 |
| CTGGCTGA | -0.0217 |
| AGTCGCAA | -0.0612 |
| ATTAATAG | 0.0023 |
| CCCACCAA | -0.022 |
| AAGGCCCT | -0.13 |
| CTCAAAGC | 0.00491 |
| AGTTGGAA | -0.0605 |
| AATCGGTA | 0.0849 |
| TCACCTAA | -0.0532 |
| CATTCGCA | -0.149 |
| GAATGTGA | -0.0742 |
| GAGAGCTC | -0.064 |
| AGATCCAG | -0.11 |
| ATCAGTTC | -0.109 |
| AATCGCGT | 0.0126 |

| Sequence | PBM E-score |
| --- | --- |
| CTCCACTA | -0.189 |
| GAACTGGC | 0.121 |
| CCGAATCG | 0.291 |
| AGACCACA | -0.235 |
| AGAAGAGC | -0.102 |
| ACTACGCG | 0.0549 |
| AAACGTCG | 0.017 |
| AATTATGT | -0.116 |
| CCGTGAGC | 0.236 |
| ACCGTTCC | 0.25 |
| AGAGACGA | -0.0695 |
| GCAGTGGC | -0.00146 |
| CACCAGTA | -0.139 |
| ATAGGGGC | 0.0273 |
| AAACTGGA | -0.14 |
| CATTACAA | -0.076 |
| TCAACCGA | 0.0559 |
| CAGTATGG | -0.195 |
| CGATCGTC | 0.13 |
| CCACAGTC | -0.349 |
| CAGCGTAA | -0.135 |
| AAACATAT | 0.159 |
| AAGTGCCA | -0.179 |
| GTTGTGGA | -0.0425 |
| CGAAAAAC | 0.0937 |

| Sequence | PBM E-score |
| --- | --- |
| GGATGCAA | -0.0219 |
| CCCGTCCC | -0.0309 |
| CGAGCATA | -0.0583 |
| GTAACTGA | -0.292 |
| CAAGGCTC | -0.299 |
| AAGACACT | -0.0702 |
| AGGTCTGG | -0.13 |
| ATATACCC | 0.0752 |
| CGCGAGCG | 0.13 |
| ATGAGAAT | 0.0243 |
| CTATACAG | -0.275 |
| CGCACGAG | -0.0923 |
| AGTTCTTA | -0.0305 |
| CACGTCTA | -0.373 |
| GGTTATAC | -0.162 |
| CGGTGCGC | 0.279 |
| CACTGCTC | -0.0401 |
| GCACCCTA | -0.266 |
| AATCCGTA | 0.195 |
| AATCTTTC | 0.128 |
| GTATGAAC | 0.0609 |
| AATCACTG | -0.0988 |
| ACACTCGG | 0.17 |
| GCTGGGAC | -0.127 |
| ATACACTG | -0.245 |

| Sequence | PBM E-score |
| --- | --- |
| GACATACC | 0.00952 |
| AGAAAGCT | -0.0493 |
| CCGCTAGA | -0.0195 |
| GGGACTGA | -0.136 |
| CTGGATGA | -0.195 |
| AGAAGGTG | -0.0485 |
| AGTAGGAG | -0.1 |
| GGGGTAAA | 0.164 |
| AACAGTCC | -0.104 |
| AGATCGCA | -0.0241 |
| AGGAAGCG | 0.0602 |
| ACGGACCT | 0.288 |
| GGCGGGCA | 0.243 |
| AGGCATCA | -0.289 |
| CGAAGAGA | -0.00422 |
| ACGCCCAG | -0.16 |
| CCGCACCC | 0.266 |
| CGCCGACC | 0.296 |
| TCAGATAA | -0.117 |
| CGCCAGCA | -0.108 |
| TATATGCA | -0.245 |
| GTAGTAGA | -0.138 |
| CAACAACA | -0.183 |
| CAGTGGAC | -0.146 |
| CGGAGCAG | 0.417 |

| Sequence | PBM E-score |
| --- | --- |
| ATGCCTCA | 0.00596 |
| GCTGGCGA | -0.0626 |
| AGTACGAA | 0.0415 |
| TAGTCGAA | -0.13 |
| CGGCGAGA | 0.202 |
| ATGCCACC | -0.208 |
| CTACATAC | -0.0842 |
| ATTATAGC | -0.086 |
| CCTGCATC | -0.183 |
| AATGCCAG | -0.0332 |
| ACGATACT | 0.0467 |
| ATGCGTAG | -0.0723 |
| GATTTAAC | 0.154 |
| CTACGGCA | 0.00652 |
| GTCGTTCA | -0.245 |
| CCGGCCAA | 0.315 |
| GGTTTCTA | 0.0335 |
| CTGTGTTA | 0.0025 |
| ATTATCCA | -0.155 |
| ATTAATCG | 0.218 |
| GGCTCTGA | -0.357 |
| ATCACTTA | -0.2 |
